According to PubChem BioAssay (NCI):
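Where inhibition never reached the appropriate level, the endpoint shown equals the highest concentration tested. Otherwise, values were interpolated linearly from a five-concentration, 48-hour dose response in 96-well plates. GI50 marks 50% less growth. TGI: concentration producing complete growth inhibition.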

test system: NCI-H322M lung; assay: NCI anticancer screen, dose series, 48 h

`COc1cccc(-c2cc(=O)c3cc(C)cnc3[nH]2)c1` and `COc1ccc(-c2cn3c(n2)sc2cc(C)ccc23)cc1` cannot be ordered by TGI: greater than 100 µM for the first, greater than 100 µM for the second.

Going from `O=C(N/N=C/c1ccc(F)cc1)c1[nH]c2ccc(I)cc2c1-c1ccccc1` to `Cc1nn(-c2ccccc2)c(C)c1/C=N/NC(=O)c1sc(=S)n(-c2ccccc2)c1N`, the TGI falls from greater than 100 µM to 22.1 µM.

`O=C(O)C(Cc1cccs1)C(=O)O` and `CCOC(=O)C(=O)Nc1c(C)cccc1CC` cannot be ordered by TGI: greater than 100 µM for the first, greater than 100 µM for the second.

`Cc1c(C(=O)CC(=O)C(=O)NC2C3CC4CC(C3)CC2C4)[n+](=O)c2ccccc2n1[O-]` (stereo unspecified) and `O=C(CSC1=NCCN1)c1ccccc1` cannot be ordered by TGI: greater than 100 µM for the first, greater than 100 µM for the second.

`Cn1c(N/N=C/c2ccc(Cl)cc2)nc(-c2ccc(Cl)cc2)c(C#N)c1=O` and `N#CC1C(N)=NNC1c1ccc(-c2ccc(-c3nc4ccccc4o3)cc2)o1` (stereo unspecified) are within 1.5-fold of each other in TGI: 53.4 µM for the first, 69.6 µM for the second.

`COc1ccc(N=Cc2ccc(N(CCC#N)CCC#N)cc2)cc1` and `CCCc1ccc(N=Cc2cc(OC)c(OC)c(OC)c2)cc1` cannot be ordered by TGI: greater than 100 µM for the first, greater than 100 µM for the second.

First: CCCCCc1c(CCCC)c(=O)[nH]c2cc(CNCC(OC)OC)ccc12
Second: CCCN(CCCCC(NC(C)=O)C(=O)NCc1ccccc1)C(=O)NC (stereo unspecified)
The TGI of the first is lower: 27.2 µM for the first, greater than 100 µM for the second.

First: CCCCNC(=S)Nc1nc(C(=O)NNS(=O)(=O)c2ccccc2)cs1
Second: CCOC(=O)/C(C1=CC(=O)C(=O)c2ccccc21)=C(/C)NCc1ccccc1
The TGI of the first is higher: greater than 100 µM for the first, 5.4 µM for the second.

`S=C1CC(c2ccc(Cl)cc2)Sc2ccccc2N1` (stereo unspecified) and `OC1CN=C2c3ccccc3C(O)(c3ccc(Cl)cc3)N2C1` (stereo unspecified) cannot be ordered by TGI: greater than 100 µM for the first, greater than 100 µM for the second.

Going from `CC(=O)O[C@H]1/C(=C/c2ccc(N(C)C)cc2)C[C@H]2[C@@H]3CC=C4C[C@@H](N5CCCC5)CC[C@]4(C)[C@H]3CC[C@]12C` to `CC1(C)C(=O)/C(=C\c2ccco2)C[C@]2(C)[C@H]3CC=C4[C@@H]5C[C@](C)(C(=O)O)CC[C@]5(C)CC[C@@]4(C)[C@]3(C)CC[C@@H]12`, the TGI falls from greater than 100 µM to 25.4 µM.

Compared with `O=Nc1c2cccnc2n2nnc3ccc(Cl)cc3c12`, `COc1ccc2nc3c([N+](=O)[O-])ccc4c3c(c2c1)NCCN4C` is 3.5-fold lower in TGI: 35.3 µM for the first, 10.2 µM for the second.

`N#CC(c1ccccc1)c1cccc2ccccc12` (stereo unspecified) and `NNC(=O)c1ccccc1NC(=O)/C(=C/c1ccccc1)NC(=O)c1ccccc1` cannot be ordered by TGI: greater than 100 µM for the first, greater than 100 µM for the second.

`CC(NCCS(=O)(=O)O)C(=O)O` (stereo unspecified) and `CCOC(=O)/C(=C\c1ccc(CO)o1)P(=O)(OCC)OCC` cannot be ordered by TGI: greater than 100 µM for the first, greater than 100 µM for the second.

Going from `CC1=C(N2CC2)C(=O)c2nc3n(c2C1=O)CCC3O` (stereo unspecified) to `Cn1c(=O)c2c(nc3n2CCC(=O)N3)n(C)c1=O`, the TGI rises from 1.66 µM to greater than 100 µM.

`COc1cccc2c1C1=CC(=O)CCC1C(C)(C)O2` (stereo unspecified) and `CC1(C)OC2C(=O)OC(COCc3ccccc3)C2O1` (stereo unspecified) cannot be ordered by TGI: greater than 100 µM for the first, greater than 100 µM for the second.

`Cc1ccc(N2C(=O)C(Cl)=C(Nc3cccc(O)c3)C2=O)cc1Cl` and `O=C1NC(=O)C(c2ccccc2Cl)=C1Nc1cccc(O)c1` cannot be ordered by TGI: 33.1 µM for the first, greater than 25 µM for the second.

`CCCCCCCCCC[C@@H](O)[C@@H]1CC[C@@H]([C@@H]2CC[C@@H]([C@@H](O)CCCCCCCCCCC(O)CC3=CC(C)OC3=O)O2)O1` (stereo partly specified) and `CN(C)CCCOC(=O)C(O)(Cc1ccccc1)C1CC1` (stereo unspecified) cannot be ordered by TGI: greater than 10 µM for the first, greater than 100 µM for the second.

Going from `CN(C)c1ccc(C(c2ccc(N(C)C)cc2)c2ccc([N+](=O)[O-])cc2)cc1` to `Cc1ccc2c(c1)sc(-c1ccc(N(C)C)cc1)[n+]2C`, the TGI falls from greater than 100 µM to 17.4 µM.

Compared with `OCCCNCc1ccccn1`, `CN(C)CCOc1ccc(-c2c(Oc3ccc(Cl)cc3)c(=O)oc3ccccc23)cc1` is lower in TGI: greater than 100 µM for the first, 20.9 µM for the second.

`CC1=C2N3C[C@@H](n4c(=O)n(C)c(=O)n43)C23CCC1n1c(=O)n(C)c(=O)n13` and `O=C1/C(=C/c2cccs2)N=C(c2ccccc2)N1C1Nc2cc3c(cc2S1)NC(N1C(=O)/C(=C/c2cccs2)N=C1c1ccccc1)S3` (stereo unspecified) cannot be ordered by TGI: greater than 100 µM for the first, greater than 100 µM for the second.

`O=[N+]([O-])/C=C\c1ccc2c(c1)OCO2` and `CN(C)Cc1cc(N=Nc2ccc(Cl)c(Cl)c2)ccc1O` are within 1.5-fold of each other in TGI: 23.8 µM for the first, 23.9 µM for the second.

Going from `O=C(N/N=C/c1ccc(F)cc1)c1[nH]c2ccc(I)cc2c1-c1ccccc1` to `O=C1NC(=O)C(c2ccccc2Cl)=C1Nc1cccc(O)c1`, the GI50 rises from 3.41 µM to greater than 25 µM.

First: O=Nc1c2cccnc2n2nnc3ccc(Cl)cc3c12
Second: Cc1ccc(N2C(=O)C(Cl)=C(Nc3cccc(O)c3)C2=O)cc1Cl
The GI50 of the first is 1.5-fold lower: 12 µM for the first, 18 µM for the second.

Going from `N#CC1C(N)=NNC1c1ccc(-c2ccc(-c3nc4ccccc4o3)cc2)o1` (stereo unspecified) to `Cc1ccc2c(c1)sc(-c1ccc(N(C)C)cc1)[n+]2C`, the GI50 falls from 19.1 µM to 2.18 µM (8.8-fold).

Going from `CC1(C)C(=O)/C(=C\c2ccco2)C[C@]2(C)[C@H]3CC=C4[C@@H]5C[C@](C)(C(=O)O)CC[C@]5(C)CC[C@@]4(C)[C@]3(C)CC[C@@H]12` to `CCOC(=O)/C(C1=CC(=O)C(=O)c2ccccc21)=C(/C)NCc1ccccc1`, the GI50 falls from 10.8 µM to 1.95 µM (5.5-fold).

For `O=[N+]([O-])/C=C\c1ccc2c(c1)OCO2`, the GI50 was 10.6 µM.
